Hit rate of the full screen: of about 44,000 compounds, about 340 (0.77%) were called active. About 5% were inconclusive and are not listed. Calls follow the shape of the dose curve; as a rule, active = well fitted inhibition curve with a large enough effect; inconclusive = small, poorly fitted or top-dose-only effect; inactive = flat fitted curve, though single readings scatter. Some of the results follow.
Test: Acumen qHTS Assay for Inhibitors of the mTORC1 Signaling Pathway in MEF (Tsc2-/-, p53-/-) Cells: Sytravon;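 also: plate controls were DMSO for no effect and rapamycin for full effect; nearly all actives have a fitted effect of over 50% in size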
Details: phospho-rpS6 immunofluorescence/PI, 24 h; series mostly up to 38.3 µM; activity change, negative = inhibition: at the top concentration
Method in brief: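 Tsc2-/-, p53-/- mouse embryonic fibroblasts (empty-vector line) exposed to compound 24 hrs at 37 C, fixed, immunostained for phospho-rpS6 and counterstained with propidium iodide. Acumen laser scanning gives % positive cells from Alexa 488/PI ratio, thresholded using 7.5 nM rapamycin; PI count gives viability.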

Activity change, negative = inhibition, inactive:
CCC(C(=O)N1CCN(c2cc(Cl)ccc2C)CC1)n1nc(C)n2c(cc3occc32)c1=O (stereo not drawn) -15.3%
CCSc1nc2n(n1)C(c1ccc(CC)cc1)C(C(=O)Nc1ccccc1OC)=C(C)N2 (stereo not drawn) -0.14%
Cc1c(Cl)cccc1-n1c(CCC(=O)O)ccc1-c1cccs1 3.12%
CCc1cccc(NC(=O)CN2C(=O)CCc3cc(S(=O)(=O)N4CCOCC4)ccc32)c1 3.76%
Cc1ccc2oc(C(=O)Nc3nnc(CC(C)C)s3)cc(=O)c2c1 1.04%
CCN(CC)c1cc(C)nc2nc(-c3ccc(C)cc3)nn12 -0.734%
Cc1ccc(CN2CCSc3ccc(C(=O)Nc4ccc(F)cc4F)cc32)cc1 3.79%
COc1ccc(N2CCN(C(=O)c3cc4c(=O)n(Cc5ccccc5)ccc4nc3C)CC2)cc1 -7.26%
COC(=O)c1nnn(CC(=O)NC(=O)Nc2ccccc2F)c1C(=O)OC -12%
Cc1noc(NS(=O)(=O)c2ccc(NC(=O)c3ccc(Br)cc3)cc2)c1C -0.356%
Cc1c(Cl)cccc1NC(=O)c1ccc2nc(C(C)C)oc2c1 -0.419%
CCc1ccccc1Nc1nn2c(=O)c3ccc(C(=O)Nc4ccc(OC)cc4)cc3nc2s1 -9.53%
O=C(CSc1nc2ccccc2nc1Cc1ccccc1)N1CCN(c2ccccc2)CC1 1.02%
Cc1cccc(NC(=O)NCCOCCn2c(=O)oc3ccccc32)c1C 2.6%
CC(=O)Nc1cc(-c2ccccc2)nn1Cc1cccc(Cl)c1 6.64%
COc1ccc(CCC(=O)NCc2nc3cccnc3n2Cc2ccccc2)cc1 -2.39%
CC1Cc2cc(S(=O)(=O)CCC(=O)Nc3ccc(Cl)cc3F)ccc2N1C(=O)C1CC1 (stereo not drawn) -15.9%
CC(C)Oc1ccc(C(=O)Nc2ccc(-c3nc4ccccc4s3)cc2)cc1 -10.5%
Cc1ccccc1Cn1c(CN2CCN(c3cc(Cl)ccc3C)CC2)nc2c1c(=O)[nH]c(=O)n2C 0.19%
COc1ccccc1C(=O)Nc1cc(-c2ccc(C)cc2)no1 1.57%
COc1ccc(CCNC(=O)CCc2c(C)c3cc4c(C)coc4cc3oc2=O)cc1 0.0842%
Cc1ccc(Cl)cc1NC(=O)CCCN1C(=O)CCn2nc(-c3cn(C)c4ccccc34)cc21 -0.0999%
CCOc1ccc(CCNC(=O)CCn2c(=O)c3cccn3c3cccnc32)cc1 3.52%
COc1ccc(C)cc1S(=O)(=O)NCC(c1ccc(N(C)C)cc1)N1CCc2ccccc21 (stereo not drawn) 0%
COc1ccc(N2CCN(C(=O)c3cc4cc5ccc(Cl)cc5nc4o3)CC2)cc1 -0.101%
O=C(O)c1ccc(N2C(=O)c3[nH]nc(-c4ccccc4)c3C2c2cccc(F)c2)cc1 (stereo not drawn) -1.12%
CCC(=O)Nc1ccccc1-c1nc2ccccc2n(C(C)C(=O)Nc2ccc(OC)cc2)c1=O (stereo not drawn) -10.7%
CN(c1ccccc1)c1ncnc2c1cnn2C -20.7%
Cc1ccc(NC(=O)Cn2c(=O)oc3cc(S(=O)(=O)N4CCC(C)CC4)ccc32)cc1Cl -28.6%
Cc1cc(NC(=O)N2CCC(CN3CCOCC3)CC2)ccc1Br -6.76%
COc1cccc(C2C(=O)N(C3CCCCC3)CC(=O)N2Cc2ccc(Cl)cc2)c1 (stereo not drawn) 2.28%
CCNc1nc(Oc2ccc(=O)n(-c3ccccc3)n2)nc(N(C)C)n1 -0.339%
CCc1ccc(C2C(C(=O)Nc3ccc(Cl)cc3)=C(C)Nc3ncnn32)cc1 (stereo not drawn) 1.72%
COc1cccc(-c2nc3c(c(C)nn3-c3ccccc3)c3cc(OC)c(OC)cc23)c1 2.49%
Cc1ccc2c(c1)C(=O)OC(C(=O)Nc1ncc(Cc3ccccc3)s1)C2 (stereo not drawn) 5.4%
CC1CCCCN1C(=O)CSc1n[nH]c(-c2ccccc2)n1 (stereo not drawn) -6.68%
CC(=O)c1cccc(-n2c(=O)c3c4c(sc3n(CC(=O)c3ccc(Cl)cc3)c2=O)CN(C(C)=O)CC4)c1 -8.61%
CCOc1cc(C(=O)Nc2ccc(-c3nc4cc(Cl)ccc4o3)cc2)cc(OCC)c1OCC 1.59%
O=C(Nc1cccc(Cl)c1)c1cc(-c2ccccc2)on1 -0.64%
O=c1[nH]c(C2CCCN(S(=O)(=O)c3ccccc3Cl)C2)nc2c1nnn2Cc1ccc(OC(F)(F)F)cc1 (stereo not drawn) -1.86%
COc1ccc(CNC(=O)CCCc2nnc3n(CCC(C)C)c(=O)c4sccc4n23)cc1 -2.04%
Cn1cc(C(=O)NCCc2ccc(Cl)cc2)c(=O)c2cc(S(=O)(=O)N3CCOCC3)ccc21 -4.46%
Cc1ccc(CCNC(=O)C2CC(=O)N(CCc3ccccc3)C2)cc1 (stereo not drawn) 6.45%
CCc1nn(CCCC(=O)N2CCN(c3ccc(OC)cc3)CC2)c(=O)c2cc3occc3n12 -2.8%
COc1ccc(CCNC(=O)c2ccc3c(c2)c(C)c(C)n3Cc2ccccc2)c(OC)c1OC -10.1%
COc1ccc(NC(=O)C2CCC(CNS(=O)(=O)c3ccc4c(c3)C(C)(C)C(=O)N4C)CC2)cc1 (stereo not drawn) -14.1%
Cc1cccc(N2CCN(C(=O)Cn3ncc4c3-c3ccccc3OC4)CC2)c1C -7.67%
CCOc1ccc(Nc2ncnc3c2nc2n3CCCCC2)cc1 0.67%
O=C(Nc1nnc(S(=O)(=O)N2CCCCCC2)s1)c1cccc(Br)c1 9.4%
N#Cc1ccccc1Cn1c(SCC(=O)Nc2ccc(F)cc2)nc2ccccc21 -2.09%
O=C(COc1ccccc1)Nc1ccc2nc(SCC(=O)N3CCc4ccccc43)sc2c1 -6.67%
CCOc1ccc(C(=O)Nc2onc3c2CCCC3)cc1 2.19%
Cn1cnc(S(=O)(=O)N2CCC(C(=O)Nc3ccc(C#N)cc3)CC2)c1 0%
Clc1cccc(N2CCN(c3c4c(nc5nncn35)CCC4)CC2)c1 -21.4%
CC(=O)c1ccc(NC(=O)c2nc(-c3ccccc3)n(-c3ccccc3Cl)n2)cc1 1.03%
COc1ccc(CNCCCSc2nnnn2C)c(OC)c1 0.915%
CCc1nnc(SCc2ccc(F)cc2Cl)c2cc3sc(C)cc3n12 -7.48%
COc1cccc(CNC(=O)CCn2c(=O)c3cccn3c3cccnc32)c1OC 0.395%
CCOC(=O)c1ccccc1NC(=O)c1ccc2c(Cl)c3c(nc2c1)CCC3 0.187%
Cc1nn(CC(=O)NCC(C)c2ccccc2)c(=O)c2cc3ccccc3n12 (stereo not drawn) 1.14%
COc1cc2oc(=O)c(CC(=O)NCc3ccc(OC)c(OC)c3)c(C)c2cc1Cl -1.85%
Cc1ccc(-c2noc(-c3ccc(N4CCCCC4C)c([N+](=O)[O-])c3)n2)cc1 (stereo not drawn) -7.53%
CCCCn1c(=O)c2oc3ccccc3c2n(Cc2cccc(C)c2)c1=O 3.01%

From PubChem BioAssay AID493208 (National Center for Advancing Translational Sciences (NCATS), 2011)
